Experimental data reported in the supplement of paper PMC4166925.
± gives the standard deviation of the averaged measurements. Over roughly 33,000 sequences, “E-score (dimensionless, -0.5 to 0.5)” has its median near -0.046; the highest 2% begin near 0.36. This is one part of the list.

test system: T1, SpTbr T-box DNA-binding domain (GST fusion); experiment: PBM E-score of 8-mer (E-score (dimensionless, -0.5 to 0.5)); Tbr is Tbrain of the sea star Patiria miniata (Pm) or the sea urchin Strongylocentrotus purpuratus (Sp); higher = stronger binding preference; most listed sequences are background and not binding sites; details: the construct has about 5 more residues each side
T1 sequence: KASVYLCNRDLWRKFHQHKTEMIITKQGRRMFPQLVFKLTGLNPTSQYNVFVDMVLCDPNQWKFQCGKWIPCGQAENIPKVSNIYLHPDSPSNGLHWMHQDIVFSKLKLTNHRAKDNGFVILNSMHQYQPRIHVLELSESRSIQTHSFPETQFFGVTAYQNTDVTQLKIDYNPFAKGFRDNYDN
Experimental: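 Universal protein-binding microarray (Agilent AMADID 016060, 60-bp probes with a 35-bp variable region) incubated with 200 nM GST-fused Strongylocentrotus purpuratus Tbr T-box DNA-binding domain (residues 362-554) in PBS pH 7.5. Scored for every ungapped 8-mer (given with its reverse complement) as E-score (range -0.5 to 0.5; >0.45 counts as bound) and Z-score of median probe intensity. Two replicate arrays (datasets 1 and 2).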
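Also: protein at 200 nM in PBS on universal double-stranded arrays.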

| Sequence | PBM E-score of 8-mer |
| --- | --- |
| AATCGAGC | -0.0815 ± 0.0076 |
| AACTTCTG | 0.0311 ± 0.05 |
| CCGCGTAC | -0.1114 ± 0.00088 |
| ACCGACGC | 0.105 ± 0.058 |
| CCAAGGGA | 0.0745 ± 0.0013 |
| CACGGCGA | 0.0428 ± 0.086 |
| CCTTCACA | 0.404 ± 0.0071 |
| ACTACTCC | -0.139 ± 0.024 |
| GATGTATA | -0.132 ± 0.071 |
| TCCTGGAA | -0.327 ± 0.059 |
| CCCACACC | 0.438 ± 0.033 |
| GGTGTTCA | 0.262 ± 0.009 |
| AGCAGCAT | -0.138 ± 0.066 |
| CGAGCTGA | 0.0161 ± 0.0018 |
| AGGTGACC | 0.151 ± 0.0043 |
| GTACCTAC | -0.161 ± 0.04 |
| ACCTGTTA | 0.325 ± 0.019 |
| CTCACCGA | 0.0544 ± 0.017 |
| ACTTTTGC | 0.121 ± 0.0038 |
| CTAGCGTA | -0.0609 ± 0.029 |
| AGACTAGC | -0.17123 ± 0.00013 |
| AAGTTGCT | 0.155 ± 0.0092 |

| Sequence | PBM E-score of 8-mer |
| --- | --- |
| ACAGGACA | 0.0815 ± 0.039 |
| CGCACTGA | 0.0995 ± 0.013 |
| GCTAAGGA | -0.0203 ± 0.016 |
| ACCCGCCG | 0.034 ± 0.012 |
| GGACACTA | -0.0848 ± 0.036 |
| ACACCCAA | 0.3623 ± 0.0032 |
| AGTATCGA | 0.039 ± 0.027 |
| AGGCATTG | -0.17 ± 0.042 |
| CGACAGCG | 0.113 ± 0.052 |
| TACGAATA | -0.128 ± 0.063 |
| AAGAAAAC | -0.105 ± 0.067 |
| ATATCGAA | -0.151 ± 0.014 |
| ATACGGAC | -0.151 ± 0.035 |
| ACGATCTC | 0.0369 ± 0.034 |
| AAGGTTCT | -0.0539 ± 0.023 |
| CCTGGTTC | -0.0505 ± 0.015 |
| CTATGTCC | -0.223 ± 0.027 |
| ACCCACAG | 0.057 ± 0.09 |
| CGCGAATA | 0.297 ± 0.012 |
| CAGAAATC | -0.117 ± 0.0073 |
| CAGACGTC | -0.2081 ± 0.00061 |
| CCGTGAAC | 0.353 ± 0.0099 |

| Sequence | PBM E-score of 8-mer |
| --- | --- |
| CGATTTTA | -0.151 ± 0.033 |
| CAGCGGGA | -0.0421 ± 0.045 |
| AGAAAATC | 0.00758 ± 0.1 |
| ACGATTTC | 0.14 ± 0.037 |
| AGATCGAT | -0.274 ± 0.13 |
| ACACACCG | 0.224 ± 0.013 |
| AGTCTCTG | -0.195 ± 0.048 |
| ATCAAGTC | 0.0467 ± 0.085 |
| GCCGCAAA | -0.0435 ± 0.092 |
| ACCCTAAA | -0.153 ± 0.018 |
| TATTAGAA | -0.1988 ± 0.00061 |
| AGGAAAAA | -0.237 ± 0.011 |
| CCCATGGG | -0.205 ± 0.062 |
| GTATACTA | -0.0786 ± 0.044 |
| ACCATGGG | -0.023 ± 0.087 |
| GCAGGTAC | -0.1938 ± 0.00057 |
| CGTAATGC | -0.14 ± 0.048 |
| AATACCTA | -0.127 ± 0.037 |
| TCAAGAAA | -0.183 ± 0.067 |
| AGAAGCAT | -0.341 ± 0.01 |
| ATGCTACC | -0.231 ± 0.11 |
| CGCTACAG | -0.00134 ± 0.096 |

| Sequence | PBM E-score of 8-mer |
| --- | --- |
| AAAGCGAT | -0.133 ± 0.046 |
| CAAGACGC | 0.0343 ± 0.08 |
| GGAAAAAA | -0.114 ± 0.12 |
| ATTCGATA | -0.00711 ± 0.01 |
| GAGAAAAA | 0.047 ± 0.018 |
| CACCAAGG | 0.156 ± 0.014 |
| TCCGGTAA | -0.127 ± 0.062 |
| GCCGGAAC | -0.128 ± 0.053 |
| ACATTTCA | 0.137 ± 0.032 |
| ATAGTTCA | -0.041 ± 0.015 |
| ATAATGCA | -0.0964 ± 0.06 |
| AATCCCGA | -0.177 ± 0.0089 |
| ACACCCGG | 0.317 ± 0.042 |
| AGTTGCAT | -0.1 ± 0.018 |
| ACAGCAAA | -0.0361 ± 0.094 |
| CGTGGAAA | -0.057 ± 0.079 |
| AGAGCATA | -0.235 ± 0.031 |
| CGCAGCAC | 0.0169 ± 0.017 |
| AATATGGG | -0.0594 ± 0.012 |
| CTTGCTCA | 0.0349 ± 0.022 |
